The results in this text go back to paper PMC10726135.

The list shows a part of the results. At the low end of the ranking, values are background and their order means little. The protein was read in a cell extract, so binding may be indirect.

This assay deals with T1, HNF4alpha2 (COS-7 nuclear extract) (UniProt P41235).
T1 sequence: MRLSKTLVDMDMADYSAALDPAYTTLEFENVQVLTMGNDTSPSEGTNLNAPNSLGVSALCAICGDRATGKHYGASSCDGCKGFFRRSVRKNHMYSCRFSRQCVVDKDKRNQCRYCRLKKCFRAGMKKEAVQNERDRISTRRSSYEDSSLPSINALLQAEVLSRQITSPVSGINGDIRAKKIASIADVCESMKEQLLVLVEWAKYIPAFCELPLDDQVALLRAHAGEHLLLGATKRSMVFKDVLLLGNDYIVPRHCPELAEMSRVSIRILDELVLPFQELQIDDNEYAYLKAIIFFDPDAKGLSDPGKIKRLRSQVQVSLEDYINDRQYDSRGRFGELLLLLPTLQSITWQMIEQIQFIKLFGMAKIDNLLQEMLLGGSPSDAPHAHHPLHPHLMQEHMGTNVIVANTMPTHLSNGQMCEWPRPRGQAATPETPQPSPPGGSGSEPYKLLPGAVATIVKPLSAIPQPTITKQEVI
Description: protein-binding microarray. The note with it: COS-7 nuclear extract on double-stranded Agilent 4x180k PBM; binding buffer, salt, pH and temperature not given; high values mean tight binding; double strand, one strand shown; sequences stand for … in …GCCTAGGGAGATTAGAGTATCGGTCGA
CAGTAAGAGCATCAGCAATGAACAAAGGTC: the binding signal (log2 normalized intensity) is 4.27.
In the case of TCAAAAATGCTTTACAAGGTGGTTGCTGTT it was 1.56; in that of GTTGAGGTCAGACATGGCTGTATGTGACAT, 1.37.
The value for CCGCATTTTCCTTTGTTGGTTTTGCCCGAG was 2.11.
The value for CACTGAAGTGAGTTAATAAATACTGGAGGA was -0.658.
AAGAGAGCCATTGGTGTAACTCTGGGTCTG: the binding signal (log2 normalized intensity) is 0.658.
For the sequence TCAGGGAGCTTTTACCTCAAATAAAGGTCA, the binding signal (log2 normalized intensity) is 2.96.
On to TGACTTTCAGAAAGTCCTTGGAAACTGTTC, for which the binding signal (log2 normalized intensity) worked out at 0.173.
In the case of TGACAAAGACAGATTAGATCTGCGTAAGGG, the binding signal (log2 normalized intensity) was -1.24.
As to TATCTTCAATGATAAGGAATGAGGAGTCAG, the binding signal (log2 normalized intensity) was determined as 0.365.
For the sequence GCTGCCTTTTAGCTCCATACTTCAAGAAGT, the binding signal (log2 normalized intensity) is -1.11.
ATGTGACCTTCACCCTGCTGTAAATAAAAT: the binding signal (log2 normalized intensity) amounted to 2.03.
On to TTGCCCTTTAGTTATCTCTTCTTTCTGTAT, for which the binding signal (log2 normalized intensity) was 2.11.
Consider CTGCCTGCTTGGCCTCTCCACTTGGGTATC, for which the binding signal (log2 normalized intensity) came to 0.729.
TCCAAAATATTTGCAGTGAGAAGAGGAAAA: the binding signal (log2 normalized intensity) was -1.26.
For AAGCTGGAAGGACAGCATTCCTGTCTGCGA, the binding signal (log2 normalized intensity) was -1.11.
As to GAGATAAGTCACCTTATCAAGTCCGAACTC, the binding signal (log2 normalized intensity) was 0.669.
In the case of GGAGCCAGGGCCTTTTCAAGGGAGTCCTCC, the binding signal (log2 normalized intensity) was -1.08.
CCGCGCGCAGGGCGGACAGCGCCGCCACCC: the binding signal (log2 normalized intensity) was -1.24.
For the sequence AACTAGGGCAGGGACTTTGCCCTTTTTAAT, the binding signal (log2 normalized intensity) amounted to 5.86.
The value for AAGCTGTGTCAGGCATTGTACTCACTGTTA was 1.21.
Turning to AATACCATCATCTCAGGGAGTGCAAACTTC, the binding signal (log2 normalized intensity) turned out to be 1.13.
Take GGTCAAAGGTCAGTTTCTTTAAGACAAGTG: the binding signal (log2 normalized intensity) came out at 5.53.
With AAGTGGACTTTAGAACCCAAATAGACTTAA, the binding signal (log2 normalized intensity) was 3.71.
With TCTCCTCTGAACCCTCTTCTCAACTAGGCC, the binding signal (log2 normalized intensity) worked out at 1.38.
In the case of ACCAGCGTAATTCTGGCTCTTTGAGTGGTT it was 0.76.
In the case of GATGTCTGCTTCTTGGGTCAAAGTCTCTGG it was 3.53; in that of GTAATGACATGCAGTATGGGGACTTTGGAC, 5.99.
For TGAGCAGCTGGAGGGGGACTGGAAGGGAGA, the binding signal (log2 normalized intensity) is -0.808.
The value for ATTCTCACCACTAGGAAACTGACCTTTGCT was 5.16; that for AGCAGATAAGAACACAAAAAGCCTGAGCAT was -1.14.
In the case of ACTCCTGCCCCTGTGCAATACTTTCCCTGA, the binding signal (log2 normalized intensity) turned out to be 1.07.
In the case of CCCCACTGTTTTACTGGGGCCCATTGTATG it was 0.384; in that of TGCTCCAGTAAAAGCTCTACCTGACCTCCC, 2.94; in that of ATGAGCCCCCTAAAAAGAAAACTAGATAGT, 1.21.
With TTTGTTACTTACAGACTTTCAACATTATGA, the binding signal (log2 normalized intensity) was 1.42.
For CACATGGTGTCTTTTGTTGTTGTTAGCTGT, the binding signal (log2 normalized intensity) came to 2.39.
For TCTTTTTTCTGAAGACCTTCAACTGATTAG, the binding signal (log2 normalized intensity) is -0.0462.
As to AAATAGCTGGGTCTCACTCTGACCCCTCCC, the binding signal (log2 normalized intensity) was determined as 4.93.
For the sequence GGTTGTCAGACTGGTGTAGTGGGGAGGGCA, the binding signal (log2 normalized intensity) was determined as 1.41.
Consider TTAGAGAACGGGTCAAGAGGGACAAAATGC, for which the binding signal (log2 normalized intensity) was -1.17.
The value for TGCATTCCATCAGTAGTATTACCTGCATCT was -1.02; that for CCTCTGCCTAGGAAAACCAGAGACCTTTGT was 3.13.
In the case of GTAAACTAGTGATGTGGAAATCTGGACTCA it was 2.97; in that of TGTATCTATCTCTATGTCCACAGAAAGGCA, 0.91.
In the case of CTGGAATTTCAAAGGGAGCATATGTATGTC it was 1.44.
As for GGAGAACAAACCTTATCTCTCAAGGTTCCC, the binding signal (log2 normalized intensity) was -1.16.
As for CAGATTAGAAGGCAGAGAAAGATAGGAGAT, the binding signal (log2 normalized intensity) is -1.09.
As to TATACCTGTACACTTACAAGTGTACAAAGG, the binding signal (log2 normalized intensity) is 2.65.
Take TTCTTTCGGTCACCCACACAAAAATGTGCC: the binding signal (log2 normalized intensity) was -1.3.
Consider CAAACAAAAAACCCTAGAGATGTACACAGT, for which the binding signal (log2 normalized intensity) is -0.939.
Take ACTCTGTTTGTAAAGTCTACAAGTGGATAT: the binding signal (log2 normalized intensity) stood at 1.55.
Consider CCATTACCACATTCTCACCACTAGGAAACT, for which the binding signal (log2 normalized intensity) is -1.15.
Take GAAGATTCTTTGGTTGGGAATAACATTGTG: the binding signal (log2 normalized intensity) is 1.79.
With ACGTAAACAAGTAAGGAAGACAAGACAAGG, the binding signal (log2 normalized intensity) was -1.21.
For the sequence CCCACCTCCACTCTCATAAAAGAGGCCAAT, the binding signal (log2 normalized intensity) was 1.66.
Regarding TAGCACTGACCAGCTCCAAAGTCCGCCACT, the binding signal (log2 normalized intensity) amounted to 2.36.
GCTAGAGCGCGCTGGAATCTTGATAATGCC: the binding signal (log2 normalized intensity) was -1.27.
Turning to GCTTCCAATCCTGGAGAAGGAGCACCAATG, the binding signal (log2 normalized intensity) was -1.02.
In the case of TAAAATAACGACCTTTGGGCTAAAAAGGAA it was 2.51.
The value for CCCTCTGGTGCTGATGTGTTCGCCCCTAGG was 1.23; that for GATAGGGAGGGGTAAGGGTGGGGGTGGGGA was -1.14.
As to CTGAATGGAATGAAGATACTGGATAACCTT, the binding signal (log2 normalized intensity) was 0.695.
For GGTCAGCAATCTCAAAGACTGGAGGTAGAT, the binding signal (log2 normalized intensity) is -1.07.
Regarding TCTTGACCAGGCAAGCTTGACCTTTGATCC, the binding signal (log2 normalized intensity) is 10.2.
With ACAGTGCAGCACAGCAGCTGACAGATGGTG, the binding signal (log2 normalized intensity) is -1.19.
Regarding CACAGCTCTAGAGGGCTGCTTATCTAGGAT, the binding signal (log2 normalized intensity) was -0.814.
Take TTTTCTTTTTAATCCTGGATTCCTCCAGCC: the binding signal (log2 normalized intensity) was -0.837.
Regarding AATGGGCCTAGGTATTGAGGGAGCAAAGGG, the binding signal (log2 normalized intensity) is -0.79.
Take TATCACCCTCCCTATCAGCTACTCATGCTT: the binding signal (log2 normalized intensity) stood at 1.01.
In the case of TGCAGAGTGTCCCACTTCAGGCAGGAATGC, the binding signal (log2 normalized intensity) is -1.08.
In the case of GTCCCCCACCTGGAATGTGCTCCCGACTGC, the binding signal (log2 normalized intensity) was found to be 3.41.
